In the supplement of paper PMC7125110:
± gives the standard error. Variants at the floor of the assay are shown more often than the library holds them.

B1: glmS ribozyme (parent)
chain: AUAAAAGCGCCAGAACUACAGAAAUGUAGUUGACGAGGAGGAGGUUUAUCGAAUUUUCGGCGGAUGCCUCCAAA

Variants of: B1
Experiment: self-cleavage kobs at 2500 uM GlcN6P; higher = faster cleavage; RNA array
Details: with glucosamine-6-phosphate
In short: (§1)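 The measurements used barcoded ribozyme variants on sequenced MiSeq chips, transcribed in situ by E. coli RNA polymerase and tracked at 37 °C with a hybridised Cy3 probe. Glucosamine-6-phosphate, 40 μM to 10 mM in HEPES/KCl/Mg(OAc)2 buffer, was flowed in while tiles were imaged over ~14 h. Baseline-normalised signals, also normalised to non-cleaving reference variants, gave per-tile medians that were fit to one- or two-exponential decays for kobs. kcat and KM resulted from weighted Michaelis–Menten fits across concentrations.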

| Variant | self-cleavage kobs at 2500 uM GlcN6P |
| --- | --- |
| AUAAAAGCGCCAGAACUACAGAAAUGUAGUUGACGAGGAGGUGGUAUAUCGAAUUUUCGGCGGAUGCCUCCAAA | 7.32e-05 ± 1.7e-05 s⁻¹ |
| AUAAAAGCGCCAGAACUACAGAAAUGUAGUUGACGAGUAGGAGGCUUAUCGAAUUUACGGCGGAUGCCUCCAAA | < 1e-05 s⁻¹ |
| AUAAAAGCGCCAGAACUACAGAAAUGUAGUUUACGAGGAGGAGGUUUAUUGAAUUUUCGGCGGAUGCCUCCAAA | < 1e-05 s⁻¹ |
| AUAAAAGCGCCAGAACUACAGAAAUGUAGUUGAAGAGGAGGAGGUUUCUCCAAUUUUCGGCGGAUGCCUCCAAA | < 1e-05 s⁻¹ |
| AUAAAAGCGCCAGAACUACAGAAAUGUAGUUGACGAGGAGCUGGUUUAUCGAAUUUUCGGCGGAUGUCUCCAAA | < 1e-05 s⁻¹ |
| AUAAAAGCGCCAGAACUACAGAAAUGUAGUUGACGCGGAGGAGGUUUAUCGAAUUUUCUUCGGAUGCCUGCAAA | < 1e-05 s⁻¹ |
| AUAAAAGCGCCAGAACUACAGAAAUGUAGUUGAAAAGGAGGAGGUUGGUCGAAUUUUCGGCGGAUGCCUCCAAA | < 1e-05 s⁻¹ |
| AUAAAAGCGCCAGAACUACAGAAAUGUAGUUGACCAGGAGGUGGUUUAUCGAAUAUUGGGCGGAUGCCUCCAAA | < 1e-05 s⁻¹ |
| AUAAAAGCGCCAGAACUACAGAAAUGUAGUUGACAAGGAGGAGUUUUAUCGAAUUUUCGGCGGAUGCCUCCAAA | < 1e-05 s⁻¹ |
| AUAAAAGCGCCAGAACUACAGAAAUGUAGUUGACGACGAGGAGGUUUUUCGAAUUUUCGGCGGACGCCUCCAAA | < 1e-05 s⁻¹ |
| AUAAAAGCGCCAGAACUACAGAAAUGUAGUUGACGAGGAAGCGGUUUAUCGAAUUUCCGGCGGAUGUCUCCAAA | < 1e-05 s⁻¹ |
| AUAAAAGCGCCAGAACUACAGAAAUGUAGUUGACGAGGUGGAGGUUUAUCGCAUUUUCGGCGGAUGCCUCAAAA | < 1e-05 s⁻¹ |
| AUAAAAGCGCCAGAACUACAGAAAUGUAGUUGACGAAGAGAAGGUUUAUCGAAUUUUCGGUGGAUGCCUCCAAA | < 1e-05 s⁻¹ |
| AUAAAAGCGCCAGAACUACAGAAAUGUAGUUGACGAGCAGGAAGUCUAUCGAAAUUUAGGCGGAUGCCUCCAAA | < 1e-05 s⁻¹ |
| AUAAAAGCGCCAGAACUACAGAAAUGUAGUUGAGGAGGAGGAGGUUUAGCGAAUUUUCGGCGGAUGCCUCCAAA | < 1e-05 s⁻¹ |
| AUAAAAGCGCCAGAACUACAGAAAUGUAGUUGACGAGGACGAGGUUUAUCGAAUUUUCGCCGGAUGACUCCAAA | < 1e-05 s⁻¹ |
| AUAAAAGCGCCAGAACUACAGAAAUGUAGUUGAGCAGGAGGAGGUUUAUCGAAUUUUCGGCGGAUACCUCCAAA | < 1e-05 s⁻¹ |
| AUAAAAGCGCCAGAACUACAGAAAUGUAGUUGACGAGGAGUAGGUUUAUCGGAUUUUCGGCGGAUGCGUCCAAA | < 1e-05 s⁻¹ |
| AUAAAAGCGCCAGAACUACAGAAAUGUAGUUGAAGAGGAGGAGGUUUAGCGAGUUUUCGGCGGAUGCUUCCAAA | < 1e-05 s⁻¹ |
| AUAAAAGCGCCAGAACUACAGAAAUGUAGUUGAAUAGAAGGAGGUUUCUAGAAUUUUCGGCGGAUGCAUCCAAA | < 1e-05 s⁻¹ |
| AUAAAAGCGCCAGAACUACAGAAAUGUAGUUGACGAGGUGGAGGUUUAUGGGAUUUUCGGCGGAUGCCUCCAAA | < 1e-05 s⁻¹ |
| AUAAAAGCGCCAGAACUACAGAAAUGUAGUUGAGGAGAAGGUGCUUUAUCGAAUUUUCGGCGGAUGUCUCCAAA | < 1e-05 s⁻¹ |
| AUAAAAGCGCCAGAACUACAGAAAUGUAGUUGACGUGGAGGAGGUUUAUCGAAUUUGCGGCGGGUGUCUCCAAA | < 1e-05 s⁻¹ |
| AUAAAAGCGCCAGAACUACAGAAAUGUAGUUGACGAGGAUGAGGUUUAGCGAAUUUUCUGCGGAUGCCUCCAAA | < 1e-05 s⁻¹ |
| AUAAAAGCGCCAGAACUACAGAAAUGUAGUUGACGAGGAGAAGGAUUAUCGAAUUUUCGGCGGAUGCCUCUAAA | 9.76e-05 ± 2.1e-05 s⁻¹ |
| AUAAAAGCGCCAGAACUACAGAAAUGUAGUUGACGAGGUGGAGGUUUAUCGAAUUUUCGGCGGAUACGUCCAAA | 4.5e-05 ± 2e-05 s⁻¹ |
| AUAAAAGCGCCAGAACUACAGAAAUGUAGUUGACGAACAGGAGGUUUAUCGAAUUGUCGGCGGAUGCCUGCAAA | 6.06e-05 ± 1.5e-05 s⁻¹ |
| AUAAAAGCGCCAGAACUACAGAAAUGUAGUUGACGAAGAGGAUGUUUAUCGAAUUUUCGGACGAUGCCUCCAAA | < 1e-05 s⁻¹ |
| AUAAAAGCGCCAGAACUACAGAAAUGUAGUUGUAGAGGAGGAGUUUUAUCGCAUUUUCGGCGGAUGCCUCCAAA | < 1e-05 s⁻¹ |
| AUAAAAGCGCCAGAACUACAGAAAUGUAGUUGACGAGCAGGAGGUUUUUCGAAUUUCCGGCGGAUGUCUCCAAA | < 1e-05 s⁻¹ |

Variants of: B1
Experiment: self-cleavage kobs at 10000 uM GlcN6P; higher = faster cleavage; RNA array
Details: with glucosamine-6-phosphate
In short: as §1

| Variant | self-cleavage kobs at 10000 uM GlcN6P |
| --- | --- |
| AUAAAAGCGCCAGAACUACAGAAAUGUAGUUGACGAGGAGGUGGUAUAUCGAAUUUUCGGCGGAUGCCUCCAAA | 0.000112 ± 1.7e-05 s⁻¹ |
| AUAAAAGCGCCAGAACUACAGAAAUGUAGUUUACGAGGAGGAGGUUUAUUGAAUUUUCGGCGGAUGCCUCCAAA | < 1e-05 s⁻¹ |
| AUAAAAGCGCCAGAACUACAGAAAUGUAGUUGACGAGGAGCUGGUUUAUCGAAUUUUCGGCGGAUGUCUCCAAA | < 1e-05 s⁻¹ |
| AUAAAAGCGCCAGAACUACAGAAAUGUAGUUGACAAGGAGGAGUUUUAUCGAAUUUUCGGCGGAUGCCUCCAAA | < 1e-05 s⁻¹ |
| AUAAAAGCGCCAGAACUACAGAAAUGUAGUUGACGAGCAGGAAGUCUAUCGAAAUUUAGGCGGAUGCCUCCAAA | < 1e-05 s⁻¹ |
| AUAAAAGCGCCAGAACUACAGAAAUGUAGUUGAGGAGGAGGAGGUUUAGCGAAUUUUCGGCGGAUGCCUCCAAA | < 1e-05 s⁻¹ |
| AUAAAAGCGCCAGAACUACAGAAAUGUAGUUGACGUGGAGGAGGUUUAUCGAAUUUGCGGCGGGUGUCUCCAAA | < 1e-05 s⁻¹ |
